A word on the Kd: it is the free concentration of one partner at which half of the binding sites on the other are occupied at equilibrium, for simple one-to-one binding.

The record followed here is patent publication US20070099244A1 (TEXAS A AND M UNIVERSITY SYSTEM, published 2007).

For test [1], the target named is T1, purified recombinant human type III procollagen (yeast cells from FibroGen) (human, UniProt P02461 24-1466, hydroxyproline residues formed by co-expressed prolyl 4-hydroxylase; positions not given).
T1 construct: also called Collagen III; procollagen III
T1 sequence (looked up): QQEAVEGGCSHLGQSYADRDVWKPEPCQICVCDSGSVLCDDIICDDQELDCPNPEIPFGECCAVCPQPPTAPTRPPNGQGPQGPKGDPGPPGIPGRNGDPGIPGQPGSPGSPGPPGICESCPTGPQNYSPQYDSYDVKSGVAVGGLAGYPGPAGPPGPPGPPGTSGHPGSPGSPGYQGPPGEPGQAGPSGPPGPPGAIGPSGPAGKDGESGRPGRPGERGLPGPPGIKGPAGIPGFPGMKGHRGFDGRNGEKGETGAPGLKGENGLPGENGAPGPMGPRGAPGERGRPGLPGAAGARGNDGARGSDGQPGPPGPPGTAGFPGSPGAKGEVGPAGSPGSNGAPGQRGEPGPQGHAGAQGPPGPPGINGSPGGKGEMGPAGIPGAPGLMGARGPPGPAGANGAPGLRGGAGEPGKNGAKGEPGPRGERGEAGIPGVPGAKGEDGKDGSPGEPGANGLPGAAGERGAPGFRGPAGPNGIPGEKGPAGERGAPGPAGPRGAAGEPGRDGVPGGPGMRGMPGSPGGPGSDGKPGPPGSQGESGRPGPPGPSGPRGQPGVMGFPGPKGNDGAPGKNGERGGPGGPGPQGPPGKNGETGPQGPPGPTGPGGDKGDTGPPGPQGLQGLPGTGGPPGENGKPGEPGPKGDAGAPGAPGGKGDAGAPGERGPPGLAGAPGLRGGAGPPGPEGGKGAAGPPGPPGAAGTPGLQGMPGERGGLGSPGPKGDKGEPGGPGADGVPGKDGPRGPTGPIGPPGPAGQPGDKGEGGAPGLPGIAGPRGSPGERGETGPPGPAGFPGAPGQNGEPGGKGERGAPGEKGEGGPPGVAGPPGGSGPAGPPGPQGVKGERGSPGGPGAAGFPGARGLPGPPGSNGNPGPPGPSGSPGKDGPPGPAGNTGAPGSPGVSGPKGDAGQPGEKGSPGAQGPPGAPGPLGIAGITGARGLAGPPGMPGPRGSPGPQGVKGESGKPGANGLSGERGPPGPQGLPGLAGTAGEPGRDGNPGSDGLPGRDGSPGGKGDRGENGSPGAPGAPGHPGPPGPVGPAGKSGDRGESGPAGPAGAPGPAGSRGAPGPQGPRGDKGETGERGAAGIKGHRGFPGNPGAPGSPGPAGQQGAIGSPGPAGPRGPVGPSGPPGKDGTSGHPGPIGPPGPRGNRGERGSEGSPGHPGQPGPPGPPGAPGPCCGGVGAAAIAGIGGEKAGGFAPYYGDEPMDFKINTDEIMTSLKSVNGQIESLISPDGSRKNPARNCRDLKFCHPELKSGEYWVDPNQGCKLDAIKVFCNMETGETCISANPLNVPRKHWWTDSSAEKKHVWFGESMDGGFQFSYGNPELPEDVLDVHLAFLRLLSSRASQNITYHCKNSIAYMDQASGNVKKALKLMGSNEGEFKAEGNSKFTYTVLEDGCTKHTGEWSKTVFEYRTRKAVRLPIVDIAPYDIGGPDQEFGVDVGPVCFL
The test is described as follows: SPR (BIAcore 3000), collagen immobilised on a CM5 chip, equilibrium analysis; high affinity class of sites. On the technique in general: Surface plasmon resonance follows binding to a sensor surface in real time, without labels.

The target of test [2] is T2, purified recombinant human type I procollagen (yeast cells from FibroGen) (human, UniProt P02452 23-1464; P08123 23-1366, hydroxyproline residues formed by co-expressed prolyl 4-hydroxylase; positions not given).
T2 construct: Procollagen, triple helical; also called Collagen I; procollagen I
T2 sequence (P02452 23-1464, chain 1 of 2): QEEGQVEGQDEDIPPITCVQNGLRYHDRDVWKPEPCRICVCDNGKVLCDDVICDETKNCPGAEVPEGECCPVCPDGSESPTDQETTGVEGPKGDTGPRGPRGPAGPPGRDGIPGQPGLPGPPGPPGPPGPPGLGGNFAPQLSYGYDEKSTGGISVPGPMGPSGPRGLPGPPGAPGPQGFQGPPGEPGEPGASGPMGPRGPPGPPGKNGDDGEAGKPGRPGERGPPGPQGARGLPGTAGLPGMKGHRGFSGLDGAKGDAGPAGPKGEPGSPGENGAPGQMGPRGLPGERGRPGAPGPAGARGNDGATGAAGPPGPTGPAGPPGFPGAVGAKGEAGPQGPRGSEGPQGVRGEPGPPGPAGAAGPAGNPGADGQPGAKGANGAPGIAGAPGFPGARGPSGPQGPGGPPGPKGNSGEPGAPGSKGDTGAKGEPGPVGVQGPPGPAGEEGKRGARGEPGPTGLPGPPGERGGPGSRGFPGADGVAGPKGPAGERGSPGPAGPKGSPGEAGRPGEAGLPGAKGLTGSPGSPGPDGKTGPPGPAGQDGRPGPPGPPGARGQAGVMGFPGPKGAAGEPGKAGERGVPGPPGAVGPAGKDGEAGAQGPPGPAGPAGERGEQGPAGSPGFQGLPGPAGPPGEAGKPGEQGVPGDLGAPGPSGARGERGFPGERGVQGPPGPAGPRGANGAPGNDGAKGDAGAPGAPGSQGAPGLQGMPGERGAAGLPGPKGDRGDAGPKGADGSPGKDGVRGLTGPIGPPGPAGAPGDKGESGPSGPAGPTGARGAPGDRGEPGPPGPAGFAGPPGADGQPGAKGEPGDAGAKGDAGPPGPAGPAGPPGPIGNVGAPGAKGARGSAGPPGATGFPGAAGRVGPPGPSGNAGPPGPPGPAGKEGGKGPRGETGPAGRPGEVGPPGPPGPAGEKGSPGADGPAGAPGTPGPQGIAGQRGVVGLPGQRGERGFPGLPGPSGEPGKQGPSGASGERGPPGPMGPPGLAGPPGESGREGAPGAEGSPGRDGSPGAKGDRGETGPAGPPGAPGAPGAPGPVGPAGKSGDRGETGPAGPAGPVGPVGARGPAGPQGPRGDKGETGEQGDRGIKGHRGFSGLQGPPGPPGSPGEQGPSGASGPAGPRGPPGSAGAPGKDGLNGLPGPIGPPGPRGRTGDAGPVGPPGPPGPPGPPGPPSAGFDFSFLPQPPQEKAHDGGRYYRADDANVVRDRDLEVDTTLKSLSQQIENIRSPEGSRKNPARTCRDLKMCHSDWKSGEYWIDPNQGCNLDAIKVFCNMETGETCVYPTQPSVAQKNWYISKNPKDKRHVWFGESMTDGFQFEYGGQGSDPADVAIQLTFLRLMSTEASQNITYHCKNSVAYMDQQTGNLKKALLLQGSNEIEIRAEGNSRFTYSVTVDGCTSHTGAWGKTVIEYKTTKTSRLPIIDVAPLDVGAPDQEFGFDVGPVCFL
T2 sequence (P08123 23-1366, chain 2 of 2, further chain): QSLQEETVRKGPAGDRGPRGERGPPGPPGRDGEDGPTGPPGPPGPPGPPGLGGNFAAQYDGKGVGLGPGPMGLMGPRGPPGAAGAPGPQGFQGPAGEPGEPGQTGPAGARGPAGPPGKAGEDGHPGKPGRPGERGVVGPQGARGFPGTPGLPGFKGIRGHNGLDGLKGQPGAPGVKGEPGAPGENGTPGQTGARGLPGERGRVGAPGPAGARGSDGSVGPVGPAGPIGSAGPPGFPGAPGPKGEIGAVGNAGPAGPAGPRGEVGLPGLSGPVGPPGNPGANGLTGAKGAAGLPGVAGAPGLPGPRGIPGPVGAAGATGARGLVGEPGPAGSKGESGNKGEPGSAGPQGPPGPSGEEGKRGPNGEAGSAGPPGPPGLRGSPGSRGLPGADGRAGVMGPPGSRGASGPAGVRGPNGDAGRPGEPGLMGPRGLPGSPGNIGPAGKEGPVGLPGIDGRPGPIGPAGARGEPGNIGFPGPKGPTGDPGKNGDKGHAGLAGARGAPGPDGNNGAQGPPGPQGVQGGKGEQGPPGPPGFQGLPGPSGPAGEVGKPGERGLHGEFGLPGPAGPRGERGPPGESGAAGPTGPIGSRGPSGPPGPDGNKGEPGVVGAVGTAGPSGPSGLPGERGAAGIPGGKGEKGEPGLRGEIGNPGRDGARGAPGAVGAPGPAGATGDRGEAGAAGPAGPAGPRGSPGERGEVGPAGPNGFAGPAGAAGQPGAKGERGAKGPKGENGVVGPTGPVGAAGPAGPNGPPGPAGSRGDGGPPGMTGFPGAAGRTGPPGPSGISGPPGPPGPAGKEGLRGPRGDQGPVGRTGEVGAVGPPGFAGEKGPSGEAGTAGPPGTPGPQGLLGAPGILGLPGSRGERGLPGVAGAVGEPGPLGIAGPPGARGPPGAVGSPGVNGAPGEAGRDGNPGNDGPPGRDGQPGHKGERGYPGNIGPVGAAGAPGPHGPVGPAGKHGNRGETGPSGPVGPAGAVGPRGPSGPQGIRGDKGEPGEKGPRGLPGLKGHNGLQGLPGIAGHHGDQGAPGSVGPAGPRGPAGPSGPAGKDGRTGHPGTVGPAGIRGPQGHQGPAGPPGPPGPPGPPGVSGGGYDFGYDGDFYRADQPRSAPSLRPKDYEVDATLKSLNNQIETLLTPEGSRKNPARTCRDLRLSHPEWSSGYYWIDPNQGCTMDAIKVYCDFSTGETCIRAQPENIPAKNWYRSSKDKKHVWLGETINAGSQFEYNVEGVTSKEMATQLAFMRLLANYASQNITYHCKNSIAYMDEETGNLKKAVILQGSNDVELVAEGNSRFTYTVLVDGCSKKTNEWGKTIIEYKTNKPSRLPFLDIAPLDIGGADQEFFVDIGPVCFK
Described as above.

Test [3] has as its target T3, bovine mature type II collagen (Sigma) (bovine, UniProt P02459 182-1487).
T3 construct: mature; Bought tissue collagen; also called type II mature collagen; Collagen II
The description is as above.

The target in test [4] is T1, purified recombinant human type III …. The test is described as follows: SPR (BIAcore 3000), collagen immobilised on a CM5 chip, equilibrium analysis; low affinity class of sites.
Test [5] deals with T2, purified recombinant human type I …. Described as above.
In test [6] the target is T3, bovine mature type II collagen (Sigma). Described as above.
T3 sequence (P02459 182-1487): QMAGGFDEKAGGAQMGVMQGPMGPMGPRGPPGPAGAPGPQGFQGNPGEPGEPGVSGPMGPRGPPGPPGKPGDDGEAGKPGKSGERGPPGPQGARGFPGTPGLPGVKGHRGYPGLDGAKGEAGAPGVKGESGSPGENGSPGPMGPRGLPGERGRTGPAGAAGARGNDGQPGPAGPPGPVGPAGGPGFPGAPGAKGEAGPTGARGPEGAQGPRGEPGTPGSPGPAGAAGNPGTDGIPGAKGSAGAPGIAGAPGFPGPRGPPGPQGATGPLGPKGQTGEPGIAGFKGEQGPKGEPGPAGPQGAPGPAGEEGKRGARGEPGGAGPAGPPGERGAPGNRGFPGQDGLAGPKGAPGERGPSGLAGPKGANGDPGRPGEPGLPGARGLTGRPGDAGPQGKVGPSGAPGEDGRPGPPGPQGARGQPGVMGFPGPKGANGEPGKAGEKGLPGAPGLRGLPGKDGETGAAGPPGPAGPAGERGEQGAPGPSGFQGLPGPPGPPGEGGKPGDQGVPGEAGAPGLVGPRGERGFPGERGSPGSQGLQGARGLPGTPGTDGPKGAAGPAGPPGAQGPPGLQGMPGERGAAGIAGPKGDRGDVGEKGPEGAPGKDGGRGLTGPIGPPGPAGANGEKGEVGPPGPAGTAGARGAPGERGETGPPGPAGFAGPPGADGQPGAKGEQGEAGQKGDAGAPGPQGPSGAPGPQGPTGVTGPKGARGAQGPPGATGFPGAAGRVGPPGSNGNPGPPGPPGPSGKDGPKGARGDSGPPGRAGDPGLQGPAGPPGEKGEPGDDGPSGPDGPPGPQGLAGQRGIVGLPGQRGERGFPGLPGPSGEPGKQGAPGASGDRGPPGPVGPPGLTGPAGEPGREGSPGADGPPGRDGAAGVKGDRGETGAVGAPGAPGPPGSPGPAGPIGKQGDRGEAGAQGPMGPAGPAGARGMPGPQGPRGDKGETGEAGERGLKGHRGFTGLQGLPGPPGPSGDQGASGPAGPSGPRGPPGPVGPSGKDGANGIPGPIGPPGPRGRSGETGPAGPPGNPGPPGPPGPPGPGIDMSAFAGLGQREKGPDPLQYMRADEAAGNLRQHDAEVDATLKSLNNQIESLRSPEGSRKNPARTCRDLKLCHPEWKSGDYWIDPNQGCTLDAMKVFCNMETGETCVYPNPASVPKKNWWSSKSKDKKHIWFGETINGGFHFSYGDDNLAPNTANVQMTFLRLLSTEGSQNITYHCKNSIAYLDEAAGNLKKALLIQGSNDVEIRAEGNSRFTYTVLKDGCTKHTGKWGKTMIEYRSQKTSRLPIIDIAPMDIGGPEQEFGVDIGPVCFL

B1: recombinant I domain of integrin α1 subunit (receptor)
chain: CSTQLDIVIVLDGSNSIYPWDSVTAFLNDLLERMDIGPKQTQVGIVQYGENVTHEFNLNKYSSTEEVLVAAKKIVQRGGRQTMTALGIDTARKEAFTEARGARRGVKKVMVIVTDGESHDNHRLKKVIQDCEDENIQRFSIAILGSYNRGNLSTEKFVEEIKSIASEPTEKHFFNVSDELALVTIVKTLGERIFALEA
As for B1, the Kd in test [1] came out at 0.19 µM; in test [2], 0.32 µM; in test [3], 0.15 µM; in test [4], 6.15 µM; in test [5] it was 5.5 µM; in test [6], 7.28 µM.
